Assay results from PubChem BioAssay AID651820 (National Center for Advancing Translational Sciences (NCATS), 2012).
About 12,000 (3.5%) of roughly 340,000 compounds were called active. Inconclusive results, whose numbers are uncertain, are shown with a selection of clear calls. Calls follow the shape of the dose curve; as a rule, active = well fitted inhibition curve with a large enough effect; inconclusive = small, poorly fitted or top-dose-only effect, or another doubt; inactive = no such curve, though single readings can be large or run the other way. No potency is given beside an inconclusive call; the fits are too rough.

Assay: qHTS Assay for Inhibitors of Hepatitis C Virus (HCV)
Details: Huh7.5.1 HCVcc-Cre (HCVcc is cell-culture hepatitis C virus) infection, luciferase reporter, 44 h; activity change, negative = inhibition: at 41.8 µM (top of the series) unless noted
In short: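 Whole-lifecycle infectious HCVcc-Cre system; cells 1,000/well, compound then virus (~0.5 moi) added 4 h after plating, 44 h culture. Luciferase read 15 sec following 15 min substrate incubation, room temp.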
% is scaled to controls: 0 for no effect and ±100 for the full control effect; potency is read from the fitted curve at half-maximal effect; tags tell the direction and shape of the fitted curve.

| Structure (SMILES) | Potency | activity change, negative = inhibition |
| --- | --- | --- |
| O=C(CCCn1c(=O)c2ccccc2n(CC(=O)N2CCN(c3ccccc3)CC2)c1=O)NCc1ccco1 | inconclusive [inhibitor, single point] | – |
| S=C(Nc1ccccc1)N1CCn2c1nc1ccccc12 | inconclusive [inhibitor, partial curve, poor fit] | – |
| COC(=O)[C@@]1(C)[C@H]2C(=O)N(Cc3ccccc3)C(=O)[C@H]2[C@H]2CN(C)C(=NC3CCCCC3)N21 | active: 0.562 µM | – |
| CCCCCCCCn1sccc1=O | inconclusive [inhibitor, single point] | – |
| Brc1ccc(OCc2nnnn2-c2ccccc2)cc1 | inconclusive [inhibitor, partial curve] | – |
| O=C(CSc1nc2c(sc3ccccc32)c(=O)n1CCCN1CCCC1)NCC1CCCO1 (stereo not given) | inconclusive [inhibitor, single point] | – |
| COc1ccccc1NC(=O)c1ccc[n+]([O-])c1 | inactive | – |
| NC(=O)C(=O)N/N=C/c1c2ccccc2cc2ccccc12 | inconclusive [inhibitor, single point] | – |
| Cn1c2ccccc2c2c(=O)oc3ccccc3c21 | inconclusive [inhibitor, partial curve] | – |
| CCOc1cc(/C=N/Nc2nc(Nc3ccccc3)nc(N3CCCCC3)n2)ccc1OCC(=O)O | inactive | – |
| COc1ccc(-c2nc3cnccn3c2NCc2ccccc2)cc1SC1CCCCC1 | active: 10 µM | – |
| O=C1NC(=Nc2ccccc2)SC1Cc1ccccc1 (stereo not given) | inconclusive [inhibitor, single point] | – |
| O=C(O)CCc1nc2cc(C(F)(F)F)ccc2n(Cc2ccccc2)c1=O | inactive | – |
| CC(=O)Nc1ccc(S(=O)(=O)Nc2ccc(N3CCCCC3)cc2)cc1 | inconclusive [inhibitor, partial curve] | – |
| COc1ccc(C2CC(c3cccs3)=NN2C(=O)CCl)cc1OC (stereo not given) | inconclusive [inhibitor, single point] | – |
| CCOC(=O)N1CCc2c(sc(NC(=O)Cc3ccccc3)c2C(=O)c2ccc(OC)cc2)C1 | inconclusive [inhibitor, partial curve] | – |
| COc1ccc(/C=N/O)cc1COc1ccc(NC(C)=O)cc1 | inconclusive [inhibitor, single point] | – |
| CC(=O)c1c(Nc2ccccc2)sc(C(=O)c2ccccc2)c1C | inconclusive [inhibitor, partial curve] | – |
| COc1ccc(-c2noc(C3CCCN(C(=O)c4ccccc4)C3)n2)cc1 (stereo not given) | inconclusive [inhibitor, single point] | – |
| COc1ccc(Nc2c3c(nc4ccccc24)CCC3)c(OC)c1 | inconclusive [inhibitor, partial curve] | – |
| CCN1CCN(S(=O)(=O)c2ccc(Cl)c(C(=O)N(C)Cc3ccc(Cl)cc3Cl)c2)CC1 | inconclusive [inhibitor, single point] | – |
| O=C(CN1CCOCC1)Nc1ccccc1F | inconclusive [inhibitor, single point] | – |
| COC(=O)Cn1c(CN(Cc2ccccc2)Cc2ccccc2)nc2c1c(=O)[nH]c(=O)n2C | inactive | – |
| CC1(OC(=O)C2CCCC2)C(=O)C=C2C=C(c3ccc(C#N)cc3)OC=C2C1=O (stereo not given) | inconclusive [inhibitor, single point] | – |

| Structure (SMILES) | Potency | activity change, negative = inhibition |
| --- | --- | --- |
| COc1cc(Br)cc(/C=N/N(CCO)C2=NS(=O)(=O)c3ccccc32)c1OC | inconclusive [inhibitor, single point] | – |
| O=S(=O)(NCCc1ccccc1)c1cccc(S(=O)(=O)N2CCOCC2)c1 | inactive | – |
| CCc1ccc(-c2cc3c(=O)n(CC(=O)NCCCN4CCC(Cc5ccccc5)CC4)nc(C)n3n2)cc1 | inconclusive [inhibitor, full curve, poor fit] | – |
| COc1ccc(NS(=O)(=O)c2cccc(NC(=O)COc3ccccc3[N+](=O)[O-])c2)cc1 | inconclusive [inhibitor, full curve, poor fit] | – |
| Cc1ccc(C)c(C(=O)COC(=O)c2cc(Cl)nc3ccccc23)c1 | inconclusive [inhibitor, single point] | – |
| CN(CC(=O)Nc1ccc(Cl)c(C(F)(F)F)c1)C(=O)c1cn2ccccc2n1 | inconclusive [inhibitor, single point] | – |
| Cc1ccc(OCCNC(=O)c2ccccc2O)cc1 | inactive | – |
| Nc1ccc(CCN2CCN(c3cccc(C(F)(F)F)c3)CC2)cc1 | inconclusive [inhibitor, full curve, poor fit] | – |
| O=C(NC(=S)Nc1ccccc1N1CCOCC1)c1cccc([N+](=O)[O-])c1 | inconclusive [inhibitor, single point] | – |
| CCn1cc(C2=NC(C)(C)CO2)c2ccccc21 | active: 3.16 µM | – |
| CCCCN(C(=O)CCC(=O)Nc1cc(C)on1)C(C(=O)NC(C)(C)C)c1cccc(OC)c1OC (stereo not given) | inconclusive [inhibitor, single point] | – |
| Cc1ccc2c(c1)N(C(=O)CCC(=O)N1CCN(c3ccccn3)CC1)CC(C)O2 (stereo not given) | inactive | – |
| COc1ccc(C(=O)NCC2(c3ccc(OC)c(OC)c3)CCCC2)c(OC)c1 | active: 14.1 µM | – |
| Cc1ccc(-c2csc3ncnc(N4CCN(Cc5ccccc5)CC4)c23)cc1 | inconclusive [inhibitor, single point] | – |
| Nc1ccc2c(c1)COC2=O | inactive | – |
| Cc1c(C)c2ccc(OCC(=O)Nc3nccs3)cc2oc1=O | inactive | – |
| Cc1cccc(CSc2nc(N)c(C#N)c(-c3cccs3)c2C#N)c1 | active: 11.2 µM | – |
| Cc1ccc(/C=N/Nc2nc(N3CCCCC3)nc(N3CCCCC3)n2)o1 | inconclusive [inhibitor, partial curve] | – |
| COc1ccc(OCC(=O)Nc2ccc(Cl)cc2)cc1 | inactive | – |
| COc1ccc2[nH]c3c(c2c1)CCN1C(=O)C(CC(=O)NCCC2=CCCCC2)C[C@H](C(=O)N2CCOCC2)[C@@]31C (stereo not given in full) | inconclusive [inhibitor, partial curve] | – |
| CCC(C)(C)n1nnnc1C(c1cc2ccc(OC)cc2[nH]c1=O)N1CCc2ccccc2C1 (stereo not given) | inconclusive [inhibitor, single point] | – |
| CCN(CC)C(=O)CSc1nnc(CNc2ccc(F)cc2)n1-c1ccccc1 | inactive | – |
| Cc1nc2nc[nH]n2c(=O)c1NS(C)(=O)=O | inactive | – |
| Cc1cc(O)c(/C=N/Nc2ccccc2)c(=O)o1 | inactive | – |

| Structure (SMILES) | Potency | activity change, negative = inhibition |
| --- | --- | --- |
| Cc1cc(/C=C2/SC(=O)N(CC(=O)N3CCOCC3)C2=O)c(C)n1-c1ccccc1F | inconclusive [inhibitor, full curve] | – |
| COc1ccc(-c2cccc(NC(=O)c3cccs3)c2)nn1 | active: 3.55 µM | – |
| CCOc1cc(C(=S)N2CCCC2)ccc1OC | inactive | – |
| O=C(Nc1ccc(F)cc1)c1ccccc1NS(=O)(=O)N1CCCC1 | inactive | – |
| O=C(CN1c2ccccc2Sc2ccccc21)N/N=C/c1ccc(Cl)cc1 | inconclusive [inhibitor, single point] | – |
| Cc1ccc(SC(C)c2nc(-c3ccncc3)no2)cc1 (stereo not given) | inconclusive [inhibitor, partial curve, poor fit] | – |
| C=CCn1c(=O)[nH]c2cc(C(=O)N3CCN(c4ccc(C(C)=O)cc4)CC3)ccc2c1=O | inconclusive [inhibitor, single point] | – |
| O=C(Nc1ccccc1C(F)(F)F)C1CCN(C(=O)c2cccs2)CC1 | inactive | – |
| Cc1ccc(-n2nc3c(=O)n(CC(=O)NCc4ccc(C)o4)nc(C)c3c2C)cc1 | inconclusive [inhibitor, partial curve] | – |
| CCc1ccc(NC(=O)C2CCN(c3ncnc4c3nc3n4CCCCC3)CC2)cc1 | inconclusive [inhibitor, partial curve] | – |
| Cc1nc2scc(-c3ccc(C(C)C)cc3)c2c(=O)n1N | inactive | – |
| C[C@@H]1CN[C@H](CCO)/C1=C\c1ccccc1 | inactive | – |
| CCOC(=O)Cn1c(COc2ccccc2OC)[n+](C)c2ccccc21 | inconclusive [inhibitor, single point] | – |
| O=[N+]([O-])c1cccnc1Oc1ccc(F)cc1 | inconclusive [inhibitor, single point] | – |
| Cc1ccc(C)c(NC(=S)NNC(=O)c2csc(C(C)C)c2)c1 | inconclusive [inhibitor, single point] | – |
| Cc1ccc(-c2nnc(N3CCCCC3)c3ccccc23)cc1 | inconclusive [inhibitor, partial curve] | – |
| CCOc1cc(/C=N/n2cnnc2)ccc1OS(=O)(=O)c1ccccc1 | – | inconclusive: -49.6% [inhibitor] |
| CC[C@]12C(=O)N(C)C[C@H]([C@@H]3C(=O)N(C)C(=O)[C@@H]31)N2C(=O)c1ccccc1 | inactive | – |
| Cc1cc(=O)oc2cc3c(cc12)OCCN3 | inconclusive [inhibitor, single point] | – |
| COc1ccc(C(=O)CCC(=O)NCCc2c[nH]c3ccccc23)cc1OC | inconclusive [inhibitor, single point] | – |
| CCc1ccc2[nH]c(=O)c(CN(CC3CCCO3)C(=S)NCc3ccco3)cc2c1 (stereo not given) | inconclusive [inhibitor, single point] | – |
| NNC(=O)CCN1CCN(C(c2ccccc2)c2ccccc2)CC1 | inconclusive [inhibitor, full curve] | – |
